From ChEMBL document CHEMBL1201862, “PubChem BioAssay data set” (2004) come the findings set out here.

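Following 48 hours of exposure in 96-well plates, responses at five concentrations were used to interpolate endpoints linearly. Abbreviation: GI50, concentration required for 50% inhibition of growth.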 Active and inactive are the calls of the source. Cut-off read from the data, not from the text of the source: active = GI50 up to about 1.1 µM and inactive = higher.

The subject of this test is NCI-H322M. Description: inhibition of tumour cell growth, NCI panel, 48 h.
For the compound `COc1ccnc2c1C(=O)c1nc3ccccc3c3ccnc-2c13`, the GI50 is active: 0.0759 µM.

On to `CC(=O)ON(C(C)=O)c1ccc(-c2nc3ccccc3s2)cc1C`, for which the GI50 was inactive: 55.5 µM.

Take `CN(C)S(=O)(=O)Nc1ccccn1`: the GI50 was inactive: > 100 µM.

Take `Nc1nc(N)c(-c2cccc(C(F)(F)F)c2)c(Cc2cccc(C(F)(F)F)c2)n1`: the GI50 was inactive: 3.56 µM.

As for `CCOc1cc2c(cc1O)CC[C@@H]1[C@@H]2CC[C@]2(C)[C@@H](O)CC[C@@H]12`, the GI50 was active: 0.0673 µM.

With `CN(C)S(=O)(=O)c1nc(Cl)c2nc[nH]c2n1`, the GI50 is inactive: > 100 µM.

`Cc1cnc2sn(-c3ccc(Br)cc3)c(=O)c2c1`: the GI50 was inactive: 42 µM.

For the compound `O=C(O)CCSC(CC1(c2ccc(Cl)cc2)NC(=O)CCS1)c1ccccc1` (stereo unspecified), the GI50 is inactive: 16.6 µM.

For `O=C(Nc1ccccc1)N1CCNC1=S`, the GI50 is inactive: > 100 µM.

In the case of `O=C(C(=O)c1ccc(Cc2ccc(C(=O)C(=O)c3ccccc3)cc2)cc1)c1ccccc1`, the GI50 was inactive: > 100 µM.

For the compound `COc1c(C)c(OCC=C(C)C)cc(CO)c1CO`, the GI50 was inactive: 48.2 µM.

As to `COc1ccc(C2c3cc4c(c(OC)c3CC3OCC(=O)C32)OCO4)cc1OC` (stereo unspecified), the GI50 is active: 0.0679 µM.

On to `CC(=O)Oc1c(N2CCCCC2)c(C(=O)c2ccccc2)c(O)c2ccn(N(C)C)c12`, for which the GI50 is inactive: 10.8 µM.

Regarding `N#Cc1c(N)c2c(c(-c3ccccc3)c1-c1ccccc1)C(=O)N(NC(=O)c1ccccc1)C2=O`, the GI50 was inactive: 98.2 µM.

On to `Cc1cc(OCC(O)CO)ccc1Cl` (stereo unspecified), for which the GI50 is inactive: > 100 µM.

With `Cc1nc2ccccc2c(=O)n1NC(=O)c1ccc(N)cc1`, the GI50 was inactive: > 100 µM.

Turning to `Cc1ccc2nc(Cl)c(/C=N/N3C(=O)/C(=C/c4cccc([N+](=O)[O-])c4)N=C3c3ccccc3)cc2c1`, the GI50 is inactive: > 100 µM.

For `N#Cc1c(N)c(C#N)c2c(c1-c1ccc(Cl)cc1)COc1ccccc1-2`, the GI50 was inactive: 2.55 µM.

In the case of `CCCC(=O)C(CC)/C(CCC(=O)N(Cc1ccccc1)Cc1ccccc1)=N/NC(=O)C[N+](C)(C)C` (stereo unspecified), the GI50 is inactive: > 100 µM.

On to `CC1(C)CC(=O)C2=C(C1)NC1=C(C2)C(=O)CC(C)(C)C1`, for which the GI50 was inactive: > 100 µM.

As to `O=C1C[C@H](CCC(=O)OCc2ccccc2)NC(=O)C[C@H](CCC(=O)OCc2ccccc2)NC(=O)C[C@H](CCC(=O)OCc2ccccc2)N1`, the GI50 is inactive: > 100 µM.

Consider `N#CCc1nc(C#N)c(N)o1`, for which the GI50 was inactive: > 100 µM.

As to `COc1ccccc1C(O)(c1ccccc1)C(O)(c1ccccc1)c1ccccc1OC` (stereo unspecified), the GI50 was inactive: > 100 µM.

For the compound `Cn1c(=O)c2c([nH]/c(=N/N=C/c3ccccc3C(=O)O)n2C)n(C)c1=O`, the GI50 was inactive: > 100 µM.

On to `CCOC1=NC(C(F)(F)F)(C(F)(F)F)N=C(N2CCCCC2)O1`, for which the GI50 was inactive: > 100 µM.

`CC(C)(C)C1=Cc2cc3cc(C(C)(C)C)[nH]c(=O)c3cc2S(=O)(=O)N1`: the GI50 is inactive: 30.7 µM.

Regarding `CC(=O)NC1C(OCc2ccccc2)OC(CO)C(O)C1OC(C)C(=O)N[C@@H](C)C(=O)N[C@H](CCC(=O)NCCNCCNc1c2ccccc2nc2cccc([N+](=O)[O-])c12)C(N)=O` (stereo partly specified), the GI50 is active: 0.152 µM.

On to `CC(C)OP(=O)(OC(C)C)/C(=N/Nc1ccc([N+](=O)[O-])cc1)NNC(=O)c1ccccc1`, for which the GI50 was inactive: 60.8 µM.

With `Cc1cccc(-n2c(C)nc3ccc(NC(=S)Nc4ccccc4)cc3c2=O)c1`, the GI50 was inactive: > 100 µM.

`CC12Cc3cc4c(cc3C1(c1ccc([N+](=O)[O-])cc1)OCCO2)OCO4` (stereo unspecified): the GI50 was inactive: > 100 µM.

`COc1ccc2c3c(c(C(=O)c4ccccc4)oc13)CCC2`: the GI50 was inactive: > 100 µM.

For `C/C(C=O)=C/[C@@]1(C)O[C@@H](C)[C@@](C)(O)[C@@H]1O`, the GI50 is inactive: > 100 µM.

Turning to `CC(=O)OC1OC2C(NC(=O)OC(C)(C)C)C1CC2(OCc1ccccc1)OCc1ccccc1` (stereo unspecified), the GI50 is inactive: 46.6 µM.

`N=C1C(O)C2(I)c3ccccc3N3C(=N)C(O)C4c5ccccc5N1C4C32` (stereo unspecified): the GI50 is inactive: > 100 µM.

With `O=[N+]([O-])c1ccc(/C(Cl)=C/c2ccc(/C=C(\Cl)c3ccc([N+](=O)[O-])cc3[N+](=O)[O-])cc2)c([N+](=O)[O-])c1`, the GI50 is inactive: > 100 µM.

Consider `CCCCN1C(=O)c2c(-c3sccc3N)sc(-c3sccc3N)c2C1=O`, for which the GI50 is inactive: 27.2 µM.

As to `Cc1cccc2c1C(=O)C1(Cc3ccccc3C1=O)C2` (stereo unspecified), the GI50 was inactive: 87.1 µM.

On to `CCCCN(CCCC)CC(C(=O)Nc1ccccc1)/C(C)=N\NC(=O)c1ccncc1` (stereo unspecified), for which the GI50 is inactive: > 100 µM.

Take `Clc1cc(OCc2nn3c(Cc4ccccc4)nnc3s2)c(Cl)cc1OCc1nn2c(Cc3ccccc3)nnc2s1`: the GI50 is inactive: > 100 µM.

As for `O=C1C(CN2CCCCC2)CCC1CN1CCCCC1` (stereo unspecified), the GI50 is inactive: 31.8 µM.

Turning to `COC(=O)C(Cc1ccccc1)NP(=O)(O)OCC1OC(n2cc(F)c(=O)[nH]c2=O)CC1O` (stereo unspecified), the GI50 was inactive: 15.6 µM.

In the case of `C=C1C(=O)OC2C1CC(O)/C(C)=C\CCC1(C)OC21` (stereo unspecified), the GI50 is inactive: 61.5 µM.

As for `C1=CC2CCC1CN2CCC1CNc2ccccc21` (stereo unspecified), the GI50 was inactive: > 100 µM.

For `N=C1N(S(=O)(=O)c2ccccc2)[C@@H](Cc2ccccc2)[C@H](c2ccccc2)C1(c1ccccc1)c1ccccc1`, the GI50 is inactive: > 100 µM.

On to `O=C1CC(n2cccc2)c2c(Br)sc(Br)c21` (stereo unspecified), for which the GI50 was inactive: 19.1 µM.

With `CN1S(=O)(=O)N(C)P12(N=P(CP(=NP13(N(C)S(=O)(=O)N1C)N(C)S(=O)(=O)N3C)(c1ccccc1)c1ccccc1)(c1ccccc1)c1ccccc1)N(C)S(=O)(=O)N2C`, the GI50 is inactive: > 100 µM.

`COc1ccc2nc3cccc([N+](=O)[O-])c3c(NCCN(C)C)c2c1`: the GI50 was active: 0.164 µM.

`O=C(/C=C/c1ccccc1)CCC1C(=O)c2ccccc2C1=O`: the GI50 is inactive: > 100 µM.

`Cc1cc(=O)oc2c(CNC(C)C(=O)O)c(O)ccc12` (stereo unspecified): the GI50 was inactive: > 100 µM.

As to `CC(=O)NNc1nc(C)c(C(=O)/C=C/c2ccccc2Cl)s1`, the GI50 was inactive: > 100 µM.

As for `CCc1cccc(C(C)C)c1NC(=O)C(=O)C(Cc1nc2ccccc2nc1O)C(=O)OC` (stereo unspecified), the GI50 is inactive: > 100 µM.

In the case of `Cc1ccc(C)n1-c1ccccc1C1C=Cn2c(=O)oc3c(OC(C)C)c(OC(C)C)c(O)c1c32` (stereo unspecified), the GI50 was inactive: 23.4 µM.

For the compound `S=C1Nc2cnc3ccccc3c2SC1c1ccccc1` (stereo unspecified), the GI50 was inactive: > 100 µM.

As to `CC1(C(=O)O)CCCC1C(=O)O` (stereo unspecified), the GI50 is inactive: > 100 µM.

`Oc1nc2cc(Cl)ccc2nc1/C(=N\Nc1ccccc1)C(O)c1ccc(Cl)c(Cl)c1` (stereo unspecified): the GI50 was inactive: > 100 µM.

For the compound `O=[N+]([O-])c1ccc(C2CC(c3ccccc3Cl)=Nc3ccccc3[S+]2[O-])cc1` (stereo unspecified), the GI50 was inactive: 15.6 µM.

`N#CC(C(=O)/C(=N\Nc1nc(S)nn1N)C(C#N)c1ccc(Cl)cc1)c1ccc(Cl)cc1` (stereo unspecified): the GI50 was inactive: > 100 µM.

Take `C=Cc1nc(C#N)c(N)o1`: the GI50 is inactive: > 100 µM.

For `CCOC(CN(C)C(=O)Nc1cccc2ccccc12)OCC`, the GI50 is inactive: > 10 µM.

For `COC(=O)C(=O)C(C(=O)C(=O)Nc1ccc(C)cc1C)c1nc2ccccc2nc1O` (stereo unspecified), the GI50 was inactive: 80.5 µM.

Take `Nc1ncnc2c1ncn2[C@@H]1C[C@@H]1CO`: the GI50 was inactive: > 100 µM.

As for `CC(C)(C)OC(=O)C1C(=O)NC(=O)CC1C(OCc1ccccc1)C(OCc1ccccc1)C(COCc1ccccc1)OCc1ccccc1` (stereo unspecified), the GI50 is inactive: > 100 µM.

`Nc1ccc(C(=O)c2cn(CCN3CCOCC3)c3ccccc23)c2ccccc12`: the GI50 is inactive: 39.6 µM.

In the case of `CCOc1ccc(/N=C/C=C(\Cl)c2ccc3ccccc3c2)cc1`, the GI50 is inactive: 16.3 µM.

Consider `CCO[C@@]12CCC3CC4CC[C@@](OCC)(O1)C4C32` (stereo partly specified), for which the GI50 is inactive: > 100 µM.

As for `CCN1C(=O)/C(=C\Nc2ccccc2)S/C1=N/Nc1ncc(CC(=O)Nc2ccccc2C)s1`, the GI50 was inactive: > 100 µM.

For `O=C(NCCC1CN(S(=O)(=O)C(F)(F)F)c2ccccc21)OCc1ccccc1` (stereo unspecified), the GI50 was inactive: > 100 µM.

As to `NCCCN1CCN(CCCNc2ccc3ncn4c5ccccc5c(=O)c2c34)CC1`, the GI50 was inactive: 1.98 µM.

As to `C=CCSC1=N/C(=C\c2ccc(C)cc2)C(=O)N1CC=C`, the GI50 is inactive: 23.6 µM.

Regarding `CC(C(=O)n1ccnc1)N1c2ccccc2Sc2ccccc21` (stereo unspecified), the GI50 was inactive: > 100 µM.

Take `COc1ccc2nc3cc([N+](=O)[O-])ccc3c(Nc3ccc(S(=O)(=O)Nc4ncccn4)cc3)c2c1`: the GI50 was inactive: > 74.6 µM.

For `CC(C)C(C(=O)O)N(CC1(O)OCC(O)C(O)C1O)N=O` (stereo unspecified), the GI50 is inactive: > 100 µM.

Consider `O=P1(N(CCCl)CCCl)Oc2ccc(Cl)cc2Sc2c(ccc(Cl)c2Cl)O1` (stereo unspecified), for which the GI50 is inactive: 57.7 µM.

For the compound `CCOC(=O)c1c[nH]c2c(ccc3ncccc32)c1=O`, the GI50 is inactive: > 100 µM.

As for `COc1cc(C2c3cc4c(cc3[C@@H](Nc3ccc([N+](=O)[O-])cc3)C3COC(=O)[C@H]23)OCO4)cc(OC)c1O` (stereo partly specified), the GI50 is inactive: 6.5 µM.

For the compound `CC(/C=C/C(=O)NO)=C\C(C)C(=O)c1ccc(N(C)C)cc1` (stereo unspecified), the GI50 is active: 0.0441 µM.

As to `CC1(C(=O)O)C[C@](C)(C(=O)OCc2ccccc2)C[C@](C)(C(=O)OCc2ccccc2)C1` (stereo partly specified), the GI50 is inactive: 36.1 µM.

Consider `C[n+]1c(-c2ccc(/C=N\NC(=O)c3ccc(C(=O)N/N=C/c4ccc(-c5cn6ccsc6[n+]5C)cc4)cc3)cc2)cn2ccsc21`, for which the GI50 is inactive: 17.7 µM.

As to `COc1ccc(/N=c2/[nH]c(N)c(C(=O)c3ccc(OC)cc3)s2)cc1`, the GI50 is active: 0.668 µM.

As for `COc1cc(/C=C\c2ccc(SC)cc2)cc(OC)c1OC`, the GI50 is active: 0.0395 µM.

Turning to `O=C1OC(=O)C2C3CCC(O3)C12` (stereo unspecified), the GI50 is inactive: > 100 µM.
